Measured values published in US12286661B2, “Methods for making high intensity sweeteners” (Firmenich Incorporated, priority 2018, dated 2025).

These molecules were tested on cucurbitadienol synthase activity (assay: Cucurbitadienol synthase activities of fusion proteins in yeast strain with oxidosqualene boost, LCMS). Settings: average % activities over the average activities of the parent enzyme (Cucumis melo cucurbitadienol synthase).
Assay type: cell-based, S. cerevisiae
Protocol: For analyzing cucurbitadienol, the first LCMS method included the use of C4 2.1×100 mm column, gradient 1 to 95% B for 6 minutes, and at flow rate of 0.55 ml/min; and the second LCMS method included the use of Waters Acquity UPLC Protein BEH C4 2.1×100 […], 1.7 μm, with guard, 62 to 67% B for 2 min, 100% B for 1 min, and at flow rate of 0.9 ml/min and ESI source positive single ion monitoring of 427 and 409.
The gene encoding for a cucurbitadienol synthase form Cucumis melo was codon optimized (SEQ ID: 907) and used as a starting point for generating a library of modifications. Modifications were introduced through standard molecular biology techniques consisting of fusion peptides at the N-terminus (i.e., 5′) or C-terminus (i.e., 3′) end of the enzyme. Plasmids libraries of modified cucurbitadienol synthase genes were transformed into a yeast strain with oxidosqualene boost. Enzyme activities were measured by ratios of peak heights or areas of 409 and 427 positive mass fragments at the expected retention times for cucurbitadienol vs. an internal standard using LCMS method 2 described above. Enzyme performance were scored as average % activities over the average activities of the parent enzyme (n=8). Step 1 sequences of the enzymes and the sequences that encode the enzyme can be found in SEQ ID NOs: 951-1012. Step 1 sequence also include the fusions SS2c-G10, SS2e-A7b, SS2d-G11. SS2e-A7a, SS4d-G5, SS4d-C7, SS3b-D8, and SS2c-A10a are disclosed herein.
A collection or library of S. cerevisiae in-frame fusion polynucleotdies for a cucurbitadienol synthase gene (DNA coding sequence provided in SEQ ID NO: 907, and protein sequence provided in SEQ ID NO: 902) was prepared. The in-frame fusion polynucleotides were cloned into a yeast vector molecule to generate fusion proteins.
Various fusion proteins were generated and tested for cucurbitadienol synthase activities.

Molecule	Activity (as compared to the parent)
SEQ ID NO 920: fusion protein having cucurbitadienol synthase activity (protein, SS3d-G5 Full Gene AA seq) MTTQQEELDVGDSEGSAAPGSGSGSGMWRLKVGKESVGEKEEKWIKSISNHLGRQVWEFCSGENENDDDEAIAVANNSASKFENARNHFRNNRFHRKQSSDLFLAIQCEKEIIRNGAKNEGTTKVKEGEDVKKEAVKNTLERALSFYSAVQTSDGNWASDLGGPMFLLPGLVIALYVTGVLNSVLSKHHRQEMCRYIYNHQNEDGGWGLHIEGSSTMFGSALNYVALRLLGEAADGGEHGAMTKARSWILERGGATAITSWGKLWLSVLGVYEWSGNNPLPPEFWLLPYSLPFHPGRMWCHCRMVYLPMSYLYGKRFVGPITPIVLSLRKELYTIPYHEIDWNRSRNTCAKEDLYYPHPKMQDILWGSIYHVYEPLFSGWPGKRLREKAMKIAMEHIHYEDENSRYICLGPVNKVLNMLCCWVEDPYSDAFKFHLQRIPDYLWLAEDGMRMQGYNGSQLWDTAFSIQAIISTKLIDTFGPTLRKAHHFVKHSQIQEDCPGDPNVWFRHIHKGAWPFSTRDHGWLISDCTAEGLKASLMLSKLPSKIVGEPLEKNRLCDAVNVLLSLQNENGGFASYELTRSYPWLELINPAETFGDIVIDYSYVECTSATMEALALFKKLHPGHRTKEIDAAIAKAANFLENMQKTDGSWYGCWGVCFTYAGWFGIKGLVAAGRTYNNCVAIRKACNFLLSKELPGGGWGESYLSCQNKVYTNLEGNKPHLVNTAWVMMALIEAGQGERDPAPLHRAARLLINSQLESGDFPQQEIMGVFNKNCMITYAAYRNIFPIWALGEYSHRVLDM	124%
SEQ ID NO 924: fusion protein having cucurbitadienol synthase activity (protein, SS3c-G8 Full Gene AA seq) MEDGKQAISEGSAAPGSGSGSGMWRLKVGKESVGEKEEKWIKSISNHLGRQVWEFCSGENENDDDEAIAVANNSASKFENARNHFRNNRFHRKQSSDLFLAIQCEKEIIRNGAKNEGTTKVKEGEDVKKEAVKNTLERALSFYSAVQTSDGNWASDLGGPMFLLPGLVIALYVTGVLNSVLSKHHRQEMCRYIYNHQNEDGGWGLHIEGSSTMFGSALNYVALRLLGEAADGGEHGAMTKARSWILERGGATAITSWGKLWLSVLGVYEWSGNNPLPPEFWLLPYSLPFHPGRMWCHCRMVYLPMSYLYGKRFVGPITPIVLSLRKELYTIPYHEIDWNRSRNTCAKEDLYYPHPKMQDILWGSIYHVYEPLFSGWPGKRLREKAMKIAMEHIHYEDENSRYICLGPVNKVLNMLCCWVEDPYSDAFKFHLQRIPDYLWLAEDGMRMQGYNGSQLWDTAFSIQAIISTKLIDTFGPTLRKAHHFVKHSQIQEDCPGDPNVWFRHIHKGAWPFSTRDHGWLISDCTAEGLKASLMLSKLPSKIVGEPLEKNRLCDAVNVLLSLQNENGGFASYELTRSYPWLELINPAETFGDIVIDYSYVECTSATMEALALFKKLHPGHRTKEIDAAIAKAANFLENMQKTDGSWYGCWGVCFTYAGWFGIKGLVAAGRTYNNCVAIRKACNFLLSKELPGGGWGESYLSCQNKVYTNLEGNKPHLVNTAWVMMALIEAGQGERDPAPLHRAARLLINSQLESGDFPQQEIMGVFNKNCMITYAAYRNIFPIWALGEYSHRVLDM	121%
SEQ ID NO 928: fusion protein having cucurbitadienol synthase activity (protein, SS3c-E5Full Gene AA seq) MTIGDKLKKKLGSAAPGSGSGSGMWRLKVGKESVGEKEEKWIKSISNHLGRQVWEFCSGENENDDDEAIAVANNSASKFENARNHFRNNRFHRKQSSDLFLAIQCEKEIIRNGAKNEGTTKVKEGEDVKKEAVKNTLERALSFYSAVQTSDGNWASDLGGPMFLLPGLVIALYVTGVLNSVLSKHHRQEMCRYIYNHQNEDGGWGLHIEGSSTMFGSALNYVALRLLGEAADGGEHGAMTKARSWILERGGATAITSWGKLWLSVLGVYEWSGNNPLPPEFWLLPYSLPFHPGRMWCHCRMVYLPMSYLYGKRFVGPITPIVLSLRKELYTIPYHEIDWNRSRNTCAKEDLYYPHPKMQDILWGSIYHVYEPLFSGWPGKRLREKAMKIAMEHIHYEDENSRYICLGPVNKVLNMLCCWVEDPYSDAFKFHLQRIPDYLWLAEDGMRMQGYNGSQLWDTAFSIQAIISTKLIDTFGPTLRKAHHFVKHSQIQEDCPGDPNVWFRHIHKGAWPFSTRDHGWLISDCTAEGLKASLMLSKLPSKIVGEPLEKNRLCDAVNVLLSLQNENGGFASYELTRSYPWLELINPAETFGDIVIDYSYVECTSATMEALALFKKLHPGHRTKEIDAAIAKAANFLENMQKTDGSWYGCWGVCFTYAGWFGIKGLVAAGRTYNNCVAIRKACNFLLSKELPGGGWGESYLSCQNKVYTNLEGNKPHLVNTAWVMMALIEAGQGERDPAPLHRAARLLINSQLESGDFPQQEIMGVFNKNCMITYAAYRNIFPIWALGEYSHRVLDM	117%
SEQ ID NO 936: fusion protein having cucurbitadienol synthase activity (protein, SS2c-A10b Full Gene AA seq) MWRLKVGKESVGEKEEKWIKSISNHLGRQVWEFCSGENENDDDEAIAVANNSASKFENARNHFRNNRFHRKQSSDLFLAIQCEKEIIRNGAKNEGTTKVKEGEDVKKEAVKNTLERALSFYSAVQTSDGNWASDLGGPMFLLPGLVIALYVTGVLNSVLSKHHRQEMCRYIYNHQNEDGGWGLHIEGSSTMFGSALNYVALRLLGEAADGGEHGAMTKARSWILERGGATAITSWGKLWLSVLGVYEWSGNNPLPPEFWLLPYSLPFHPGRMWCHCRMVYLPMSYLYGKRFVGPITPIVLSLRKELYTIPYHEIDWNRSRNTCAKEDLYYPHPKMQDILWGSIYHVYEPLFSGWPGKRLREKAMKIAMEHIHYEDENSRYICLGPVNKVLNMLCCWVEDPYSDAFKFHLQRIPDYLWLAEDGMRMQGYNGSQLWDTAFSIQAIISTKLIDTFGPTLRKAHHFVKHSQIQEDCPGDPNVWFRHIHKGAWPFSTRDHGWLISDCTAEGLKASLMLSKLPSKIVGEPLEKNRLCDAVNVLLSLQNENGGFASYELTRSYPWLELINPAETFGDIVIDYSYVECTSATMEALALFKKLHPGHRTKEIDAAIAKAANFLENMQKTDGSWYGCWGVCFTYAGWFGIKGLVAAGRTYNNCVAIRKACNFLLSKELPGGGWGESYLSCQNKVYTNLEGNKPHLVNTAWVMMALIEAGQGERDPAPLHRAARLLINSQLESGDFPQQEIMGVFNKNCMITYAAYRNIFPIWALGEYSHRVLDMGSAAPGSGSGSGMNSNEDIIPEL	126%
SEQ ID NO 932: fusion protein having cucurbitadienol synthase activity (protein, SS2c-E2 Full Gene AA seq) MWRLKVGKESVGEKEEKWIKSISNHLGRQVWEFCSGENENDDDEAIAVANNSASKFENARNHFRNNRFHRKQSSDLFLAIQCEKEIIRNGAKNEGTTKVKEGEDVKKEAVKNTLERALSFYSAVQTSDGNWASDLGGPMFLLPGLVIALYVTGVLNSVLSKHHRQEMCRYIYNHQNEDGGWGLHIEGSSTMFGSALNYVALRLLGEAADGGEHGAMTKARSWILERGGATAITSWGKLWLSVLGVYEWSGNNPLPPEFWLLPYSLPFHPGRMWCHCRMVYLPMSYLYGKRFVGPITPIVLSLRKELYTIPYHEIDWNRSRNTCAKEDLYYPHPKMQDILWGSIYHVYEPLFSGWPGKRLREKAMKIAMEHIHYEDENSRYICLGPVNKVLNMLCCWVEDPYSDAFKFHLQRIPDYLWLAEDGMRMQGYNGSQLWDTAFSIQAIISTKLIDTFGPTLRKAHHFVKHSQIQEDCPGDPNVWFRHIHKGAWPFSTRDHGWLISDCTAEGLKASLMLSKLPSKIVGEPLEKNRLCDAVNVLLSLQNENGGFASYELTRSYPWLELINPAETFGDIVIDYSYVECTSATMEALALFKKLHPGHRTKEIDAAIAKAANFLENMQKTDGSWYGCWGVCFTYAGWFGIKGLVAAGRTYNNCVAIRKACNFLLSKELPGGGWGESYLSCQNKVYTNLEGNKPHLVNTAWVMMALIEAGQGERDPAPLHRAARLLINSQLESGDFPQQEIMGVFNKNCMITYAAYRNIFPIWALGEYSHRVLDMGSAAPGSGSGSGMMLEPSP	128%
SEQ ID NO 915: fusion protein having cucurbitadienol synthase activity (protein, SS3e-E7 Full gene NT Seq Full gene NT Seq) MSENHVPAVVKTRGSAAPGSGSGSGMWRLKVGKESVGEKEEKWIKSISNHLGRQVWEFCSGENENDDDEAIAVANNSASKFENARNHFRNNRFHRKQSSDLFLAIQCEKEIIRNGAKNEGTTKVKEGEDVKKEAVKNTLERALSFYSAVQTSDGNWASDLGGPMFLLPGLVIALYVTGVLNSVLSKHHRQEMCRYIYNHQNEDGGWGLHIEGSSTMFGSALNYVALRLLGEAADGGEHGAMTKARSWILERGGATAITSWGKLWLSVLGVYEWSGNNPLPPEFWLLPYSLPFHPGRMWCHCRMVYLPMSYLYGKRFVGPITPIVLSLRKELYTIPYHEIDWNRSRNTCAKEDLYYPHPKMQDILWGSIYHVYEPLFSGWPGKRLREKAMKIAMEHIHYEDENSRYICLGPVNKVLNMLCCWVEDPYSDAFKFHLQRIPDYLWLAEDGMRMQGYNGSQLWDTAFSIQAIISTKLIDTFGPTLRKAHHFVKHSQIQEDCPGDPNVWFRHIHKGAWPFSTRDHGWLISDCTAEGLKASLMLSKLPSKIVGEPLEKNRLCDAVNVLLSLQNENGGFASYELTRSYPWLELINPAETFGDIVIDYSYVECTSATMEALALFKKLHPGHRTKEIDAAIAKAANFLENMQKTDGSWYGCWGVCFTYAGWFGIKGLVAAGRTYNNCVAIRKACNFLLSKELPGGGWGESYLSCQNKVYTNLEGNKPHLVNTAWVMMALIEAGQGERDPAPLHRAARLLINSQLESGDFPQQEIMGVFNKNCMITYAAYRNIFPIWALGEYSHRVLDM	124%
